Data published in article PMC12136788.
This is one part of the list.

B1: chr6:145166005:145166006:-_ENSMUSG00000030265_ENSMUST00000032399|mus_hu|FALSE|FALSE (ssRNA)
RNA: GGGAGUUCUACAGUCCGACGAUCUUAACACAGAAGUUACUAAAUAUAAAUUCAGCUUUAAGGUAACUGCUGGGUUCUAAAAAACAUUACUACACAAUUAUCAAGAAAUCAUUACUUUUUGACAAAUGGAAAUCUUCAGAUAGUCAACAGAGGAUUGAGCAUCA
B2: chr14:102036314:102036315:-_ENSMUSG00000075486_ENSMUST00000100339|mus_mus|FALSE|FALSE (ssRNA)
RNA: GGGAGUUCUACAGUCCGACGAUCCUUGAGAGAUCUGCAGCUGUCAGAGCUCACAGCCAUGCCCAGUUUCCACUGAAAAUCUAUAAGCUGGCCCGUGACCUCCGACUUGGCAUCCAGCACGGGCUCCCUGAACCCAGACUCCUCCAACAGAGGAUUGAGCAUCA
B3: chr11:34129765:34129766:+_ENSG00000135372_ENST00000257829|hu_hu|FALSE|FALSE (ssRNA)
RNA: GGGAGUUCUACAGUCCGACGAUCCCAUUCUCAAUGAGAAUCCGGAUUCGGUUAUCCACCUUUUUCCGAUGCAUGGUGAAAAAUUAUUACUGCGCCCCGAGCCCGGGGGAUCCCAGCCAGUGGAGAAGGGGAAGCACGUGGGAGCAACAGAGGAUUGAGCAUCA
B4: chr5:37680062:37680063:+_ENSMUSG00000029121_ENSMUST00000031004|mus_hu|mus_mus_mus_hu_False|48_48 (ssRNA)
RNA: GGGAGUUCUACAGUCCGACGAUCUUUGGGUGUAGCUGGUACCUCGUACACAGGACCGUCAUACAUGCCCCUGGAAACCCCUUGCAACCCGAAAACCUUAUUCCUGAUUUUGACGCGCUGGUACAGGUGCUCCGGGAACGCCUUCAACAGAGGAUUGAGCAUCA
B5: 118633977_118635998_930_CDS_ENSG00000110367_ENST00000264018|human|control|control (ssRNA)
RNA: GGGAGUUCUACAGUCCGACGAUCAUCCAGGAUUCUCCCAGGGGUAGCAAUCACCACGUGCACUGUAUCAUCAAGCCUCAUUAUGUCAUCUCGUAAAUUGGUUCCUCCUGUGGUUGCCAUCACUUUGGCCCCUCCCAUGUGUUUCAACAGAGGAUUGAGCAUCA
B6: chr1:115110812:115110813:-_ENSG00000116752_ENST00000369541|hu_hu|FALSE|FALSE (ssRNA)
RNA: GGGAGUUCUACAGUCCGACGAUCGUCUUGCCGGAUGUUUUCUUUGUUUGCCUCUCCAUGUUGCUGCUUAAUUUGAUAGAUUUCAUUUUCUAGCUGAACAAUAGUCCGUUCAAUCUCAUAAUUCUUACUGACCAGGGAUACCCACAACAGAGGAUUGAGCAUCA
B7: chr2:155483634:155483635:-_ENSMUSG00000038324_ENSMUST00000041059|perfect_dup|motif|central (ssRNA)
RNA: GGGAGUUCUACAGUCCGACGAUCGGUGACAGCCAGGAUCCUGCAGAAGUUAGCAAGCUGCUGCUGAUCGAAAUUGGAUACGGAGGAACUCAGAUUGGGAACUUCAUCUAGCCGGAUCAUUUCCUUCUUAACACCCAAAAUGUCCAACAGAGGAUUGAGCAUCA
B8: chr5:71490711:71490712:+_ENSG00000131711_ENST00000296755|hu_hu|FALSE|FALSE (ssRNA)
RNA: GGGAGUUCUACAGUCCGACGAUCCACAGGAGUGGGCACCUGGCCAGUGAGAUCCUUUUGGGUGGCCAGUGGCUGCUUCAGAAAGUCUAGAUGUUUGAGCUUUUCCAACCCUUCCAGGAUGUUGUACUGGGUGCUGUUCCCAGGCAACAGAGGAUUGAGCAUCA
B9: chr13:100193180:100193181:-_ENSMUSG00000052727_ENSMUST00000064762|mus_hu|FALSE|FALSE (ssRNA)
RNA: GGGAGUUCUACAGUCCGACGAUCAUAAUGUUCAGGUUAAAUACAUUUAAUUGUGAAAUUGGAAAAUAACUUGCAUCUUCUGUCAAAGAAAAAUCAACCAGAGGUCUGGAUUUGGCAAGAAGGCUAAAAAUCUGGUUUUCUUCCCAACAGAGGAUUGAGCAUCA
B10: 29704766_29706733_384_CDS_ENSG00000134758_ENST00000257190|human|control|control (ssRNA)
RNA: GGGAGUUCUACAGUCCGACGAUCCUGAUUUAGAUGACUAACGAAAUUUCUGGUAAUCUGGCUAGGAUCUCCCCAAGGAAGAGACACACAAAUAGGACAUGUCACAGGAACUAUCUGAAAUAGGUGAUUACUGUUACAGUGAUCCAACAGAGGAUUGAGCAUCA
B11: chrX:20249591:20249592:+_ENSMUSG00000001924_ENSMUST00000001989|mus_hu|FALSE|FALSE (ssRNA)
RNA: GGGAGUUCUACAGUCCGACGAUCCACCAGGAAAUACUUCUGCUUGCCCAGCUUCUCUUGCAGGUCUGAGCCAAACACAGCCACUUGCCCGUCAUAACGGUUCUGGCGCUGGAGGCACUUGUCCUCUGUGAGGACCUCUUUGUCCAACAGAGGAUUGAGCAUCA
B12: 117900442_117903411_957_CDS_ENSMUSG00000033295_ENSMUST00000150096|mouse|control|control (ssRNA)
RNA: GGGAGUUCUACAGUCCGACGAUCGGUCUCCACUGAGCCUCAGCCAGCAUGACAUCCUGGAUGAUGGGUUGGCCUCGGGGCUCACCAUUCUCCAACCGCACAUAGGUGACCUGGUAGCCACGAAUCUGUCCGUGCUGCUUGUUGCAACAGAGGAUUGAGCAUCA
B13: chr16:94664741:94664742:+_ENSMUSG00000040785_ENSMUST00000117648|mus_hu|mus_mus_mus_hu_False|38_108 (ssRNA)
RNA: GGGAGUUCUACAGUCCGACGAUCUGGCAUGGAUCUUGGUAGCUGAUAUUCAGGAGAAAGGCUGGCCAAGGGUGUAUAUAUGCUGGUGUACUGGGGCAGGCUAGGUAACACGUUUAUGUAUGCUGGCGGUGUCUGGGUGAUAUCCAACAGAGGAUUGAGCAUCA
B14: chr1:130485734:130485735:-_ENSMUSG00000045382_ENSMUST00000052172|mus_mus|mus_mus_mus_hu_False|58_58 (ssRNA)
RNA: GGGAGUUCUACAGUCCGACGAUCGAUGAAGGAGUCGAUGCUGAUCCCAAUGUAGUAAGGCAGCCAACAGGCGAAGAAAGCUAGGAUGAGGAUGACUGUGGUCUUGAGGGCCUUGCGCUUCUGGUGGCCCUUGGAGUGUGACAGCAACAGAGGAUUGAGCAUCA
B15: chr13:77595817:77595818:-_ENSG00000005812_ENST00000355619|hu_hu|FALSE|FALSE (ssRNA)
RNA: GGGAGUUCUACAGUCCGACGAUCACAUCUCCACAAGUCAGGCAUGUGAAAUACCUGGUUCCAGUUGCGGCAAACUUGUGAAGCAUGAGCCCGGUCAAGAAGAGGCAAAUAUUUAAAUACUUGGAGAAUAAUGUCCUGAAGGAGCAACAGAGGAUUGAGCAUCA
B16: chr10:60562040:60562041:-_ENSMUSG00000020097_ENSMUST00000092498|mus_hu|FALSE|FALSE (ssRNA)
RNA: GGGAGUUCUACAGUCCGACGAUCUAGUCACAGUUGUUGGGUCAGUAGUACAGUGCUCAAGAACAAUUCAGACUAACAUGCCAAGGAGCCUGAGGAAAAGUCUGGUAGUCAUGGCUCUCCCAGCCAGCAUUCCCAGUGGGGGAACAACAGAGGAUUGAGCAUCA
B17: chr12:25358290:25358291:-_ENSG00000133703_ENST00000311936|hu_mus|FALSE|FALSE (ssRNA)
RNA: GGGAGUUCUACAGUCCGACGAUCGUACGGUUCAUGACAAAAAUAUUACAAAUUUCAGAUCACUUCACAGCACGUACUCCUAUAAACAUUUAAAAGUUAAUUUUAAUUAAGAGUGGUCACUUUUAAAUUUAAUGUUUGAUAUGACAACAGAGGAUUGAGCAUCA
B18: chr10:70028019:70028020:-_ENSMUSG00000037747_ENSMUST00000162251|mus_mus|motif|central (ssRNA)
RNA: GGGAGUUCUACAGUCCGACGAUCAGCCUUCUCCAGCAGCUGUGUUAGAUGAACUUUGGAGUAAUCUGCUGUACAGAAUUCGGUAAUCUCACUCCAUUCAGACACGACGUAAUCACCAUCAACCUGUUUUGAGGCAGUCUGUACCAACAGAGGAUUGAGCAUCA
B19: chr2:183792894:183792895:-_ENSG00000061676_ENST00000360982|hu_hu|FALSE|FALSE (ssRNA)
RNA: GGGAGUUCUACAGUCCGACGAUCUGCAAGCGCCAGAAAUUCUUUAAGACGGUCUUCAAUGCUUCCUUUGUGAAUUGUAAACAAAGCUGCAGCAAUCUGGUUGAUGGCUUUGGCCAAGCAAUGUAUGUUGUUGCAAUGCCCUUCCAACAGAGGAUUGAGCAUCA
B20: chr2:179979976:179979977:-_ENSG00000187231_ENST00000335289|hu_hu|motif|central (ssRNA)
RNA: GGGAGUUCUACAGUCCGACGAUCCCUGUAGCAACUGCCUGCCAUAGUCAUAAGUGCUCUGUGCAACAUCAACAAAUUUUCGGUGCUUUUCCAGCAAAACUUUCGUUUCUUGAGCAUCAUCGCCCAAUCUGAUGUGAGUCUUAACAACAGAGGAUUGAGCAUCA
B21: chr3:32335226:32335227:+_ENSMUSG00000027665_ENSMUST00000108243|mus_hu|FALSE|FALSE (ssRNA)
RNA: GGGAGUUCUACAGUCCGACGAUCUGCUUCUUUAAAUAGUUCAUGCUUUAUGGUUAUUAAUGUAGCCUCACGGAGGCAUUCUAAAGUCACUAUCAUUCCAUUUGGUAGUAAACAUUCUACUAGGAUUCUUGGGGGCAUCAAGUGCAACAGAGGAUUGAGCAUCA
B22: chr4:17845017:17845018:+_ENSG00000109805_ENST00000514176|hu_mus|hu_hu_hu_mus_False|58_58 (ssRNA)
RNA: GGGAGUUCUACAGUCCGACGAUCGCUCUCUUAACUUGUAUCUUCAUUAAGGAACUCUGCAAGGUUAAGUUUACUUUUUCUAGUGCUAGCUGUUUUGGCUCGUCUGGGUAAUCUCAUCUUCAUUUCUGAUGGUGGUUCAUGAUCCAACAGAGGAUUGAGCAUCA

target: T1, UNK ZnF1-3 (human, UniProt Q9C0B0 31-174); assay: nsRBNS (natural sequence RNA bind-n-seq); RBNS binding buffer (assumed for nsRBNS): 25 mM Tris pH 7.5, 150 mM KCl, 3 mM MgCl2, 0.01% Triton X-100, 500 ug/ml BSA, 20 U/ml SUPERase-In, 4 C; UNK is unkempt and MSI1 is Musashi-1; names of the RNAs are library labels; protein concentration not given here; high values mean tight binding
T1 sequence: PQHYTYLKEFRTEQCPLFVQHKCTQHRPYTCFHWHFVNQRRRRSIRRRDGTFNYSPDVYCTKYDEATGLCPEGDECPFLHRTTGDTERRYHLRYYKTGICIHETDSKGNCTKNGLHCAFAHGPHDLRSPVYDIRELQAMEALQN

Binder | binding signal
B1 | 0.787 enrichment R
B2 | 0.493 enrichment R
B3 | 1.31 enrichment R
B4 | 0.631 enrichment R
B5 | 1.02 enrichment R
B6 | 0.733 enrichment R
B7 | 1.28 enrichment R
B8 | 1.13 enrichment R
B9 | 1.3 enrichment R
B10 | 1.42 enrichment R
B11 | 0.823 enrichment R
B12 | 0.438 enrichment R
B13 | 1.24 enrichment R
B14 | 1.43 enrichment R
B15 | 1.23 enrichment R
B16 | 1.46 enrichment R
B17 | 1.31 enrichment R
B18 | 1.75 enrichment R
B19 | 0.904 enrichment R
B20 | 0.949 enrichment R
B21 | 1.08 enrichment R
B22 | 0.36 enrichment R
